Tested on: influenza virus (IAV)
Format: cell-based

Structure (SMILES) | virus titers in A549 cells | virus titers in MDCK cells
COc1ccc(Br)cc1CNC12CC3CC(C)(CC(C)(C3)C1)C2 [DABMA, 1,3-dimethyl-1-adamantyl (5-bromo-2-methoxybenzyl) amine] | significantly decreased | significantly decreased
COc1ccc(Br)cc1CNC12CC3CC(CC(C3)C1)C2 [ABMA, 1-adamantyl (5-bromo-2-methoxybenzyl) amine] | significantly decreased | significantly decreased
